Recombinant human monoclonal antibodies (heavy:light variable regions). ELISA EC50 on the named antigen, from 10 µg/ml down; IC50 / IC90 against spike pseudovirus on 293T-ACE2 cells, 48 h; lower = stronger. Calls: IC50 above 1,000 ng/ml = non-neutralizing; EC50 above 2,000 ng/ml = non-binder. The source prints 1000 for neutralization that was not reached; it is given as >1000 ng/ml. A few antibodies were first reported in earlier work of the same group.

B1: C2015 (protein)
chain 1: EVQLVQSGAEVKKPGESLKISCKGSGYSFTSYWIGWVRQMPGKGLEWMGIIYPGDSDTRYSPSFQGQVTISADKSISTAYLQWSSLKASDTAMYYCARQVLTYYDILTGYSFEYYFDYWGQGTLVTVSS
chain 2: EIVLTQSPATLSLSPGERATLSCRASQSVSSYLAWYQQKPGQAPRLLIYDASNRATGIPARFSGSGSGTDFTLTISSLEPEDFAVYYCQQRSNWLTFGGGTKVEIK
B2: C2051 (protein)
chain 1: QVQLVQSGAEVKKPGSSVKVSCKASGGTFSTYAISWVRQAPGQGLEWMGGIIPIFGTANYAQKFQGRVTITADKSTTTAYMELSSLRSEDTAVYYCARDARGCSHDSVWGSFQDCYHGMDVWGQGTTVTVSS
chain 2: DIQMTQSPSSLSASVGDRVTITCRASQGISNYLAWYQQKPGKVPKLLIYAASTLQSGVPSRFSGSGSGTDFTLTISSLQPEDVATYYCQKGTFGPGTKVDIK
B3: C2453 (protein)
chain 1: QVQLVQSGAEVKKPGSSVKVSCKASGGTFGSYALSWVRQAPGQGLEWMGGIIPIFGTPHYAQRFQGRVTITADESTSTAYMELGSLKSDDTAVYYCARRSSSSVDWFDPWGQGTLVTVSS
chain 2: QSALTQPASVSGSPGQSITISCTGTGSDLGGYNYVSWYQQLSGKAPKLMIYYVTNRPSGVSDRFSGSKSGNTASLTISGLQAEDEAVYYCSSYTSSSTPYVFGTGTKVTVL
B4: C2411 (protein)
chain 1: QVQLQESGPGLVKPSETLSLTCTVSGGSISSYYWSWIRQPPGKGLEWIGYIHYSGSTNYNPSLKSRVTISVDTSKNQFSLKLSSVTAADTAVYYCARHYDILTALSWFDPWGQGTLVTVSS
chain 2: DIQLTQSPSFLSASVGDRVTITCRASQGISSYLAWYQQKPGKAPKLLIYAASTLQSGVPSRFSGSGSGTEFTLTISSLQPEDFATYYCQQLNSYPPYTFGQGTKLEIK
B5: C2440 (protein)
chain 1: EVQLVESRGGLLQPGGSLRLSCAASGFSFSRFDMHWVRQGPGKRLEWVSAIGTSGDTYYADSVKARFTISRENARSSLYLQMNSLRAGDTAVYYCARGADSVMGNWYFDLWGRGTLVTVSS
chain 2: QSALTQPASVSGSPGQSITISCTGTSSDVGSYNLVSWYQQHPGKAPKLIIYEGIKRPSGVSDRFTGSSSGTTASLTISGLQAEDEADYYCCSYAGGTTFYVFGTGTKVTVL
B6: C2454 (protein)
chain 1: QVQLVQSGAEVKRPGASVKVSCKTSGYMFTSYDINWVRQATGQGLEWMGWMNPDSGNAGYAQKFQGRVTMTRNTSINTAYLELSSLRSDDTGVYYCARPRPGYCSGGHCYNYYYYAMAVWGQGTTVTVSS
chain 2: QSALTQPPSASGSPGQSVTISCTGTSSDVGGYNYVSWYQQHPGKAPKLMMYEVSKRPSGVPDRFSGSKSGNTAFLTVSGLQAEDEADYYCNSYAGSNNEVFGTGTKVTVL
B7: C2397 (protein)
chain 1: EVQLVQSGAEVKKPGESLKISCKGSGYSFTRYWIGWVRQMPGKGLEWMGIIYSGGSETRYNPSFQGLITISTDKSVSTAYLRWSSLKASDTAMYYCARSDTDNYFDYWGQGTLVTVSS
chain 2: EIVMTQSPATLSISPGERATLSCRASQSISNNLAWYQQKPGQAPRLLIYGASTRATGVPARFSGSWSGTEFTLTINSLHSEDFAVYYCQQYNNWPPITFGQGTRLEIK

One assay has as its target SARS-CoV-2 Wuhan-Hu-1 spike pseudovirus. Briefly: pseudovirus neutralization IC50; higher = weaker neutralization. The protocol:
(§1)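 Single-round luciferase reporter pseudovirus mixed with antibody dilutions and put on 293T-ACE2 cells for 48 h; signal relative to no-antibody wells, four-parameter fit.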
Regarding B1, the “pseudovirus neutralization IC50” value is more than 1 µg/mL.

As to B2, the “pseudovirus neutralization IC50” value worked out at 0.0041 µg/mL.

Another assay shares this target. Briefly: pseudovirus neutralization IC90; higher = weaker neutralization. The protocol:
as §1
Turning to B1, the “pseudovirus neutralization IC90” value was more than 1 µg/mL.

With B2, the “pseudovirus neutralization IC90” value stood at 0.0273 µg/mL.

A further assay addresses SARS-CoV-2 Wuhan-Hu-1 spike receptor-binding domain. In words: ELISA binding EC50; higher = weaker binding; ELISA of recombinant human antibody on coated antigen, from 10 µg/ml in fourfold dilutions; four-parameter fit.
On to B1, for which the “ELISA binding EC50” value is 0.00264 µg/mL.

With B2, the “ELISA binding EC50” value came to 0.00171 µg/mL.

On to B3, for which the “ELISA binding EC50” value was more than 10 µg/mL.

For the molecule B4, the “ELISA binding EC50” value was more than 10 µg/mL.

In the case of B5, the “ELISA binding EC50” value was more than 10 µg/mL.

With B6, the “ELISA binding EC50” value was more than 10 µg/mL.

Regarding B7, the “ELISA binding EC50” value is more than 10 µg/mL.

Source of the values: the supplement of paper PMC8674133.
